# Measurements as given in patent US20230346784A1 (priority 2020, published 2023).
# Key:
# [1] = human, in vivo
SMILES,liver enzymes elevation observed in the clinical program [1],elevation of serum Bb concentration (serum factor Bb)
"CC(=O)c1nn(CC(=O)N2C[C@H](F)C[C@H]2C(=O)Nc2cccc(Br)n2)c2ccc(-c3cnc(C)nc3)cc12 [Compound 1, danicopan]",transient nature of liver enzymes elevation,–
CC(=O)c1nn(CC(=O)N2[C@H]3C[C@]4(C[C@@H]24)Cn2cc(nn2)COCc2ccc(Br)nc2NC3=O)c2ccc(-c3cnc(C)nc3)cc12 [Compound 2],–,inhibited
